# Measurements from the supplement of paper PMC10037445.
# ± gives the standard deviation of the averaged measurements. The full ranking holds about 2,900 compounds; the median of “NF-kB SEAP reporter activity, fold change vs agonist alone” is about 0.99, and the highest 2% start at about 2.6. The list shows a part of the results.
# How the values were obtained:
# [1] = test system: RAW-Dual; assay: NF-kB SEAP reporter activity, fold change vs agonist alone; cytotoxicity flag (confluency mask): not cytotoxic; higher = enhanced NF-kB activity
# How it was run: (§1)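 Reporter activity is given as fold change relative to agonist-alone wells. To measure it, 50 nL of library stock was pin-tooled onto RAW-Dual macrophages (50,000 cells/well, DMEM, 384-well plates), a PRR agonist followed 1 h later, and cells stayed at 37 °C, 5% CO2. Twenty hours on, supernatant was assayed for IRF (QuantiLuc luminescence) and NF-κB (QuantiBlue, 620 nm absorbance), and wells under 70% of agonist-control IncuCyte confluency in both mask sets were marked cytotoxic.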
# [2] = test system: RAW-Dual; assay: NF-kB SEAP reporter activity, fold change vs agonist alone; higher = enhanced NF-kB activity
# How it was run: as §1
# [3] = test system: RAW-Dual; assay: NF-kB SEAP reporter activity, fold change vs agonist alone; cytotoxicity flag (confluency mask): cytotoxic (confluency <70% of control); higher = enhanced NF-kB activity
# How it was run: as §1
# [4] = agonist: ODN 1826 (TLR9) 0.5 ug/mL
# [5] = agonist: Pam2CSK4 (TLR2/6) 0.1 ug/mL
# [6] = agonist: Pam3CSK4 (TLR2/1) 0.1 ug/mL
# [7] = library stock concentration (final ~1000-fold dilution): 10 mM, cytotoxicity flag (confluency mask): not cytotoxic, agonist: Imiquimod (TLR7) […]
# [8] = library stock concentration (final ~1000-fold dilution): 10 mM, cytotoxicity flag (confluency mask): not cytotoxic, agonist: MPLA (TLR4) […]
# [9] = library stock concentration (final ~1000-fold dilution): 10 mM, cytotoxicity flag (confluency mask): cytotoxic (confluency <70% of control), agonist: Imiquimod (TLR7) […]
# [10] = library stock concentration (final ~1000-fold dilution): 10 mM, cytotoxicity flag (confluency mask): cytotoxic (confluency <70% of control), agonist: MPLA (TLR4) […]
compound,measurement,setting,value
CCCCCCCCCCCCCCCC(=O)OCC(O)C1OC(O)=C(O)C1=O (configuration not stated) (library stock concentration (final ~1000-fold dilution): 10 mM),NF-kB SEAP reporter activity,[1]; agonist: LPS (TLR4) 0.1 ug/mL,1.15
same,NF-kB SEAP reporter activity,[1]; [4],0.825
same,NF-kB SEAP reporter activity,[1]; [5],0.949
same,NF-kB SEAP reporter activity,[1]; [6],0.67
CCCCCCCCCCCCCCCC(=O)OCC(O)C1OC(O)=C(O)C1=O (configuration not stated),NF-kB SEAP reporter activity,[2]; [7],0.898
same,NF-kB SEAP reporter activity,[2]; [8],1.01
CC1CN(CC(Cc2ccccc2)C(=O)NCC(=O)O)CCC1(C)c1cccc(O)c1.O.O (configuration not stated) (library stock concentration (final ~1000-fold dilution): 10 mM),NF-kB SEAP reporter activity,[1]; agonist: LPS (TLR4) 0.1 ug/mL,0.968
same,NF-kB SEAP reporter activity,[1]; [4],0.969
same,NF-kB SEAP reporter activity,[1]; [5],0.985
same,NF-kB SEAP reporter activity,[1]; [6],1.11
CC1CN(CC(Cc2ccccc2)C(=O)NCC(=O)O)CCC1(C)c1cccc(O)c1.O.O (configuration not stated),NF-kB SEAP reporter activity,[2]; [7],0.939
same,NF-kB SEAP reporter activity,[2]; [8],1.05
Cc1ccccc1C(OCCN(C)C)c1ccccc1.Cl (configuration not stated),NF-kB SEAP reporter activity,[2]; [7],1.38
same,NF-kB SEAP reporter activity,[2]; [8],1.13
Cc1ccccc1C(OCCN(C)C)c1ccccc1.Cl (configuration not stated) (library stock concentration (final ~1000-fold dilution): 10 mM),NF-kB SEAP reporter activity,[1]; agonist: LPS (TLR4) 0.1 ug/mL,1.29
same,NF-kB SEAP reporter activity,[1]; [4],0.935
same,NF-kB SEAP reporter activity,[1]; [5],0.934
same,NF-kB SEAP reporter activity,[1]; [6],0.932
CCNC1CC(C)S(=O)(=O)c2sc(S(N)(=O)=O)cc21.Cl (configuration not stated),NF-kB SEAP reporter activity,"[2]; library stock concentration (final ~1000-fold dilution): 10 mM water, cytotoxicity flag (confluency mask): not cytotoxic, agonist: Imiquimod (TLR7) […]",0.908
same,NF-kB SEAP reporter activity,"[2]; library stock concentration (final ~1000-fold dilution): 10 mM water, cytotoxicity flag (confluency mask): not cytotoxic, agonist: MPLA (TLR4) […]",0.982
CCNC1CC(C)S(=O)(=O)c2sc(S(N)(=O)=O)cc21.Cl (configuration not stated) (library stock concentration (final ~1000-fold dilution): 10 mM water),NF-kB SEAP reporter activity,[1]; agonist: LPS (TLR4) 0.1 ug/mL,1.49
same,NF-kB SEAP reporter activity,[1]; [4],1.13
same,NF-kB SEAP reporter activity,[1]; [5],1.09
same,NF-kB SEAP reporter activity,[1]; [6],0.997
O=c1cc(-c2ccc(O)cc2)oc2cc(O[C@@H]3O[C@H](CO)[C@@H](O)[C@H](O)[C@H]3O)cc(O)c12,NF-kB SEAP reporter activity,[2]; [7],1.12
same,NF-kB SEAP reporter activity,[2]; [8],1.13
O=c1cc(-c2ccc(O)cc2)oc2cc(O[C@@H]3O[C@H](CO)[C@@H](O)[C@H](O)[C@H]3O)cc(O)c12 (library stock concentration (final ~1000-fold dilution): 10 mM),NF-kB SEAP reporter activity,[1]; agonist: LPS (TLR4) 0.1 ug/mL,1.3
same,NF-kB SEAP reporter activity,[1]; [4],1.28
same,NF-kB SEAP reporter activity,[1]; [5],1.33
same,NF-kB SEAP reporter activity,[1]; [6],1.18
CNCc1ccc(-c2[nH]c3cc(F)cc4c3c2CCNC4=O)cc1 (library stock concentration (final ~1000-fold dilution): 10 mM),NF-kB SEAP reporter activity,[1]; agonist: LPS (TLR4) 0.1 ug/mL,0.75
same,NF-kB SEAP reporter activity,[1]; [4],0.182
same,NF-kB SEAP reporter activity,[1]; [5],1.26
same,NF-kB SEAP reporter activity,[1]; [6],0.903
CNCc1ccc(-c2[nH]c3cc(F)cc4c3c2CCNC4=O)cc1,NF-kB SEAP reporter activity,[2]; [7],1.13
same,NF-kB SEAP reporter activity,[2]; [8],0.75
CCNC(=O)c1noc(-c2cc(C(C)C)c(O)cc2O)c1-c1ccc(CN2CCOCC2)cc1,NF-kB SEAP reporter activity,[2]; [9],0.286
same,NF-kB SEAP reporter activity,[2]; [10],0.742
CCNC(=O)c1noc(-c2cc(C(C)C)c(O)cc2O)c1-c1ccc(CN2CCOCC2)cc1 (library stock concentration (final ~1000-fold dilution): 10 mM),NF-kB SEAP reporter activity,[3]; agonist: LPS (TLR4) 0.1 ug/mL,0.325
same,NF-kB SEAP reporter activity,[3]; [4],0.236
same,NF-kB SEAP reporter activity,[3]; [5],0.142
same,NF-kB SEAP reporter activity,[3]; [6],0.159
CC(=O)c1cc([N+](=O)[O-])c(Sc2ccc(F)cc2F)s1 (library stock concentration (final ~1000-fold dilution): 10 mM),NF-kB SEAP reporter activity,[3]; agonist: LPS (TLR4) 0.1 ug/mL,0.257
same,NF-kB SEAP reporter activity,[3]; [4],1.47
same,NF-kB SEAP reporter activity,[3]; [5],1.15
same,NF-kB SEAP reporter activity,[3]; [6],0.767
CC(=O)c1cc([N+](=O)[O-])c(Sc2ccc(F)cc2F)s1,NF-kB SEAP reporter activity,[2]; [9],2.22
same,NF-kB SEAP reporter activity,[2]; [10],0.387
C=CCc1ccc(O)c(-c2cc(CC=C)ccc2O)c1 (library stock concentration (final ~1000-fold dilution): 10 mM),NF-kB SEAP reporter activity,[1]; agonist: LPS (TLR4) 0.1 ug/mL,0.933 ± 0.12
same,NF-kB SEAP reporter activity,[1]; [4],0.588 ± 0.04
same,NF-kB SEAP reporter activity,[1]; [5],0.795 ± 0.14
same,NF-kB SEAP reporter activity,[1]; [6],0.855 ± 0.046
C=CCc1ccc(O)c(-c2cc(CC=C)ccc2O)c1,NF-kB SEAP reporter activity,[2]; [7],0.984 ± 0.07
same,NF-kB SEAP reporter activity,[2]; [8],0.885 ± 0.012
COc1cc(O)cc(O)c1C(=O)C=Cc1ccccc1,NF-kB SEAP reporter activity,[2]; [9],2.12
same,NF-kB SEAP reporter activity,[2]; [10],0.714
COc1cc(O)cc(O)c1C(=O)C=Cc1ccccc1 (library stock concentration (final ~1000-fold dilution): 10 mM),NF-kB SEAP reporter activity,[3]; agonist: LPS (TLR4) 0.1 ug/mL,0.369
same,NF-kB SEAP reporter activity,[3]; [4],0.565
same,NF-kB SEAP reporter activity,[3]; [5],1.36
same,NF-kB SEAP reporter activity,[3]; [6],0.553
CC(c1ccc2nccn2c1)n1nnc2ncc(-c3cnn(C)c3)nc21 (configuration not stated) (library stock concentration (final ~1000-fold dilution): 10 mM),NF-kB SEAP reporter activity,[1]; agonist: LPS (TLR4) 0.1 ug/mL,1.22
same,NF-kB SEAP reporter activity,[1]; [4],0.99
same,NF-kB SEAP reporter activity,[1]; [5],1
same,NF-kB SEAP reporter activity,[1]; [6],0.786
CC(c1ccc2nccn2c1)n1nnc2ncc(-c3cnn(C)c3)nc21 (configuration not stated),NF-kB SEAP reporter activity,[2]; [7],0.897
same,NF-kB SEAP reporter activity,[2]; [8],1.07
Cc1onc(-c2c(Cl)cccc2Cl)c1C(=O)NC1C(=O)N2C1SC(C)(C)C2C(=O)O (configuration not stated),NF-kB SEAP reporter activity,[2]; [7],0.898
same,NF-kB SEAP reporter activity,[2]; [8],0.979
Cc1onc(-c2c(Cl)cccc2Cl)c1C(=O)NC1C(=O)N2C1SC(C)(C)C2C(=O)O (configuration not stated) (library stock concentration (final ~1000-fold dilution): 10 mM),NF-kB SEAP reporter activity,[1]; agonist: LPS (TLR4) 0.1 ug/mL,0.881
same,NF-kB SEAP reporter activity,[1]; [4],0.949
same,NF-kB SEAP reporter activity,[1]; [5],1.13
same,NF-kB SEAP reporter activity,[1]; [6],1.07
C=C1CCN(C(C)C(O)(Cn2cncn2)c2ccc(F)cc2F)CC1 (configuration not stated),NF-kB SEAP reporter activity,[2]; [10],1.81
C=C1CCN(C(C)C(O)(Cn2cncn2)c2ccc(F)cc2F)CC1 (configuration not stated) (library stock concentration (final ~1000-fold dilution): 10 mM),NF-kB SEAP reporter activity,[3]; agonist: LPS (TLR4) 0.1 ug/mL,1.58
same,NF-kB SEAP reporter activity,[3]; [4],1.41
same,NF-kB SEAP reporter activity,[3]; [5],0.89
same,NF-kB SEAP reporter activity,[3]; [6],0.999
